Measured values reported in PubChem BioAssay (NCI).
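Where inhibition never reached the appropriate level, the endpoint shown equals the highest concentration tested. Otherwise, values were interpolated linearly from a five-concentration, 48-hour dose response in 96-well plates. The concentration for 50% growth inhibition is given as GI50. TGI marks complete inhibition of growth.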

The molecules below were run on NCI-H322M lung (assay: NCI tumour cell line growth inhibition, 48 h).

What does the source list for `CN1CCN(c2ccc(Nc3nc(NCCCNS(=O)(=O)c4cccc5ccccc45)c4sccc4n3)cc2)CC1`?
GI50: 2.46 µM; TGI: 7.59 µM

With `COc1cnc2c(c1)C(=O)c1c-2n(CCCn2ccnc2)c(=O)c2cc(OC)c(OC)cc12` as the molecule, how does the GI50 read?
Its GI50 is 1.04 µM.

What about the TGI of the same molecule?
Its TGI is 7.63 µM.

What does the source list for `COc1cc(O)c2c(c1)[C@H]1O[C@@H]1C[C@H](O)[C@H](O)C(=O)/C=C\C[C@H](C)OC2=O`?
GI50: 13.5 µM; TGI: > 33.3 µM
